Series [1] has as its target T1, 11β-HSD1 (Homo sapiens, UniProt P28845). Nature of the series: biochemical. The conditions noted are these: for inhibition at 0.1 µM: read-out: Biological Test Example 1 Average % inhibition at 100 nM, at 100 nM.
In series [2] the target is T1, 11β-HSD1. Kind of series: biochemical. The conditions noted are these: read-out: Average % control inhibition at 100 nM.
For a further series, the target named is CYP2C9 (Homo sapiens, UniProt P11712). Nature of the series: Biological Test Example 7: CYP2C9 inhibition ([O-methyl-14C]-Naproxen O-demethylation). The conditions noted are these: human, recombinant CYP2C9, probe [O-methyl-14C]-Naproxen, O-demethylation.
Another series concerns the target CYP2C19 (Homo sapiens, UniProt P33261). Nature of the series: Biological Test Example 8: CYP2C19 inhibition ([N-methyl-14C]-Diazepam N-demethylation). The conditions noted are these: human, recombinant CYP2C19, probe [N-methyl-14C]-Diazepam, N-demethylation.
Series [3] concerns the target T2, human recombinant cytochrome P450 2C19 (Homo sapiens, UniProt P33261).
Series [4] addresses human recombinant cytochrome P450 3A4 (Homo sapiens, UniProt P08684).
Series [5] has as its target human recombinant cytochrome P450 2C9 (Homo sapiens, UniProt P11712). Nature of the series: Biological Test Example 7: CYP2C9 inhibition ([O-methyl-14C]-Naproxen O-demethylation).
Series [6] addresses T2, human recombinant cytochrome P450 2C19. Nature of the series: Biological Test Example 8: CYP2C19 inhibition ([N-methyl-14C]-Diazepam N-demethylation).
A short description of series [7]: Slurry experiment on the stability of the crystal form (suspension in water, x-ray powder diffraction). The conditions noted are these: during the measurement by XRPD (30 minutes). It counts as physicochemical.

Molecules are shown by their SMILES. Where two headings read alike, the source gives them in different places.

T2 sequence (P33261 whole entry): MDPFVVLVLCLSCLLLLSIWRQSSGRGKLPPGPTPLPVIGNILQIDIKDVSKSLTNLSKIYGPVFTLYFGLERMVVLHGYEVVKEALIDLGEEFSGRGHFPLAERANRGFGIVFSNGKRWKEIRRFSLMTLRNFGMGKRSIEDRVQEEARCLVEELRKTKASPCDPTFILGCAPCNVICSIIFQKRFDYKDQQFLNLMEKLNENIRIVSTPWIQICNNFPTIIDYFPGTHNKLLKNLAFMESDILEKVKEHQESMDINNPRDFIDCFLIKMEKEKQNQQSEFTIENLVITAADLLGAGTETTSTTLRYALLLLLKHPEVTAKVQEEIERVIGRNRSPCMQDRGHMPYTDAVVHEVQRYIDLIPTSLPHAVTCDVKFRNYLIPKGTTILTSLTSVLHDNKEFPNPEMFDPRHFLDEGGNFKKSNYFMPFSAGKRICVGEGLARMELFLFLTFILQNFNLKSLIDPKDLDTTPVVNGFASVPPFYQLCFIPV
Sequence of human recombinant cytochrome P450 3A4 (P08684 whole entry): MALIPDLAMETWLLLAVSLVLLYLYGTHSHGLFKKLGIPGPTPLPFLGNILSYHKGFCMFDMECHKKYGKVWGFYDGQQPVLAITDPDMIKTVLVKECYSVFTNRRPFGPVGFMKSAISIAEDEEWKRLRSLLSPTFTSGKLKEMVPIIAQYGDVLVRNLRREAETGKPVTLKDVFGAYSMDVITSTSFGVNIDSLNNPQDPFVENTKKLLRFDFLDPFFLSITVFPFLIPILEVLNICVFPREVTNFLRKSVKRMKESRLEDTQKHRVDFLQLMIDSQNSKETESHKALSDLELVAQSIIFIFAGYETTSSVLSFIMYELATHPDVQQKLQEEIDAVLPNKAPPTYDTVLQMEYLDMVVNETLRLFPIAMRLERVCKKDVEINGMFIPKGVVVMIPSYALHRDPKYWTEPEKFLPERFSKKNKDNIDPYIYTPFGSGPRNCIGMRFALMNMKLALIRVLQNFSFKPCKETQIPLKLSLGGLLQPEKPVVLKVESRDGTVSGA
Sequence of human recombinant cytochrome P450 2C9 (P11712 whole entry): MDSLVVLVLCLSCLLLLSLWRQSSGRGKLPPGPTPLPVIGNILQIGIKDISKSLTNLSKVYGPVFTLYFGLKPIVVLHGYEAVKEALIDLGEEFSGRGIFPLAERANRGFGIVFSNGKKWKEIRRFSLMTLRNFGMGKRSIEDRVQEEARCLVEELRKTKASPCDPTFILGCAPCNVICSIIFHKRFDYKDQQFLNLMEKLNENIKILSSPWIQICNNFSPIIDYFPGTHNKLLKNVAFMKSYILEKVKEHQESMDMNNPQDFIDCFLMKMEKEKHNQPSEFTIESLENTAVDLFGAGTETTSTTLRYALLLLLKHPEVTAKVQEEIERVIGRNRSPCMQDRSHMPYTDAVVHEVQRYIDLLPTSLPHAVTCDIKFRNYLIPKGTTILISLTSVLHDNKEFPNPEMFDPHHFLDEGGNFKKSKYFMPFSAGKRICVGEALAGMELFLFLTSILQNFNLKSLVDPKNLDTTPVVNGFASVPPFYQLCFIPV
T1 sequence (P28845 whole entry): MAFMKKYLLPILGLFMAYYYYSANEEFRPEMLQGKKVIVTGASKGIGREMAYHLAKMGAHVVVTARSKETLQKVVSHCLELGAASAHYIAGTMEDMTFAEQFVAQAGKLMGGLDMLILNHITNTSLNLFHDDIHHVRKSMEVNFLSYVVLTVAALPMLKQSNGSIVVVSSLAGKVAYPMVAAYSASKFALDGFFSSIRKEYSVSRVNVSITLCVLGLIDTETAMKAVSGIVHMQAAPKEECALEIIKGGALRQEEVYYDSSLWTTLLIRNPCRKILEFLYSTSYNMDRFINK
Sequence of CYP2C19 (P33261 whole entry): as the sequence (P33261 whole entry) above
Sequence of CYP2C9 (P11712 whole entry): as the sequence (P11712 whole entry) above

The IC50 is the concentration needed to halve the response being measured. For orientation: inhibition means the relative decrease from the control value, in per cent. With `C[C@@H](c1ccc(-c2ccn(C3CC3)c(=O)c2)cc1)N1CCC(CC(C)(C)O)(C2CCOCC2)OC1=O` (single isomer, unassigned) [Example 91 Isomer 1], on 11β-HSD1 [1], the IC50 was over 0.1 µM and the inhibition at 0.1 µM was 22.5%.
Turning to `C[C@@H](c1ccc(-c2ccn(C3CC3)c(=O)c2)cc1)N1CCC(CC(C)(C)O)(C2CC(F)(F)C2)OC1=O` (single isomer, unassigned) [Example 95 Isomer 1], the inhibition at 0.1 µM at 11β-HSD1 [1] came out at 12.8%.
Regarding `COC(C)(C)Cn1ccc(-c2ccc(C(C)N3CC[C@](CC(C)(C)O)(c4ccccc4)OC3=O)cc2)cc1=O` (stereo in doubt) [Example 83, (S)-6-(2-Hydroxy-2-methyl-propyl)-3-(1-{4-[1-(2-methoxy-2-methylpropyl)-2-oxo-1,2-dihydro-pyridin-4-yl]-phenyl}-ethyl)-6-phenyl-[1,3]oxazinan-2-one], the inhibition at 0.1 µM at 11β-HSD1 [2] amounted to 54%. In addition, the IC50 at CYP2C9 stood at 14 µM; at CYP2C19, 10 µM.
Regarding `C[C@@H](c1ccc(-c2ccc(=O)n(C)c2)cc1)N1CC[C@](CC(C)(C)O)(c2ccccc2F)OC1=O` [Example 23, (S)-6-(2-fluorophenyl)-6-(2-hydroxy-2-methylpropyl)-3-((S)-1-(4-(1-methyl-6-oxo-1,6-dihydropyridin-3-yl)phenyl)ethyl)-1,3-oxazinan-2-one], in series [3], the IC50 came out at 44 µM.
As for `C[C@@H](c1ccc(-c2cccn(C)c2=O)cc1)N1CC[C@](CCCO)(c2ccc(F)cc2)OC1=O` [Example 42, (R)-6-(4-fluorophenyl)-6-(3-hydroxypropyl)-3-((S)-1-(4-(1-methyl-2-oxo-1,2-dihydropyridin-3-yl)phenyl)ethyl)-1,3-oxazinan-2-one], the IC50 against 11β-HSD1 [1] is 0.0067 µM; at 11β-HSD1 [1] (Biological Test Example 1 IC50 Range, microsomal preparation of human 11β-HSD1, SPA), under 0.1 µM. The inhibition at 0.1 µM at 11β-HSD1 [1] was determined as 88.4%.
Take `COC[C@]1(c2ccccc2)CCN([C@@H](C)c2ccc(-c3ccn(C)c(=O)c3)cc2)C(=O)O1` [Example 78, (R)-6-Methoxymethyl-3-{(S)-1-[4-(1-methyl-2-oxo-1,2-dihydro-pyridin-4-yl)-phenyl]-ethyl}-6-phenyl-[1,3]oxazinan-2-one]: the IC50 in series [4] was 47 µM; in [5] it was 39 µM; in series [6] it was 40 µM. Also, the inhibition at 0.1 µM on 11β-HSD1 [2] stood at 58%.
For `COCC(C)Cn1ccc(-c2ccc([C@H](C)N3CC[C@](CC(C)(C)O)(c4ccccc4)OC3=O)cc2)cc1=O` (stereo partly drawn) [Example 81, (S)-6-(2-Hydroxy-2-methyl-propyl)-3-((S)-1-{4-[1-(3-methoxy-2-methylpropyl)-2-oxo-1,2-dihydro-pyridin-4-yl]-phenyl}-ethyl)-6-phenyl-[1,3]oxazinan-2-one], in that order: over 50 µM, 30 µM, 12 µM and 11%.
For `CC(CO)Cn1ccc(-c2ccc([C@H](C)N3CC[C@](CC(C)(C)O)(c4ccccc4)OC3=O)cc2)cc1=O` (stereo partly drawn) [Example 82, (S)-6-(2-Hydroxy-2-methyl-propyl)-3-((S)-1-{4-[1-(3-hydroxy-2-methylpropyl)-2-oxo-1,2-dihydro-pyridin-4-yl]-phenyl}-ethyl)-6-phenyl-[1,3]oxazinan-2-one], in that order: over 50 µM, 48 µM, 29 µM and -12%.
Regarding `C[C@@H](c1ccc(-c2ccn(C3CC3)c(=O)c2)cc1)N1CC[C@](CC(C)(C)O)(c2ccccc2)OC1=O` [anhydrous form of Example 75, 3-{(S)-1-[4-(1-Cyclopropyl-2-oxo-1,2-dihydro-pyridin-4-yl)-phenyl]-ethyl}-(S)-6-(2-hydroxy-2-methyl-propyl)-6-phenyl-[1,3]oxazinan-2-one], in series [7], the “persistence of the anhydrous state” value is reported as “did not remain in the anhydrous state”.

For the origin of these results see patent publication EP2424865B1 (Boehringer Ingelheim International GmbH, priority 2009, dated 2010).
